Literature values as cited in paper PMC10983004 (Journal of Medicinal Chemistry, 2024).

Tested on: murine Tet1/2
Conditions: cited from earlier work

Q: With O=C(O)CC[C@@H](O)C(=O)O [R-2HG, (2R)-hydroxyglutarate] as the compound, how does the IC50 read?
A: The IC50 was 4 to 5 mM.
